Measurements from article PMC12040169 (PLOS Biology, 2025).
Some of the results follow.

tested on: T1, C. trachomatis L2/434/Bu expressing GFP (CTL2-GFP); design: species or system HeLa; C. trachomatis total inclusion area by high-content imaging, normalised to DMSO; conditions: total inclusion area; 28.5 h, 10 µM; inhibitor
T1 construct: L2/434/Bu GFP intracellular growth in HeLa cells
Procedure, shortened: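 After bulk GFP and resorufin fluorescence reads, cells were fixed, stained with Hoechst and imaged by high-content microscopy. Inclusion area and number (GFP) stood in for chlamydial growth, nuclei count (Hoechst) for host cell viability. MICs were derived as for the bulk readout.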

Row | SMILES | % of control remaining
1 | FC(F)(F)Oc1ccc(-c2nccnc2OCC2COc3ccccc3O2)cc1 (centres unmarked) [CBK106845] | 93.0571
2 | C#C[C@H]1C[N@@]2CC[C@H]1C[C@@H]2CNS(=O)(=O)c1ccc(NC(C)=O)cc1 [CBK288752] | 76.0018
3 | Cc1cc(C)c2c(OCC(=O)N(C)CC(=O)NC(C)C)nn(C)c2n1 [CBK304931] | 53.6001
4 | O=C(NCCCN1CCCC(O)C1)N1CCCN(Cc2cccs2)CC1 (centres unmarked) [CBK307116] | 18.1744
5 | Cc1c2cn[nH]c(=O)c2c(C)n1-c1ccccc1 [CBK018349] | 47.8997
6 | O=C(O)CCCC(=O)Nc1ccc(Cc2ccncc2)cc1 [CBK300493] | 91.8762
7 | Cc1ccc(-c2ccc(CCC(=O)O)[nH]2)cc1 [CBK264820] | 101.104
8 | CCC(=O)Nc1nc(-c2ccc(OC)cc2)cs1 [CBK070494] | 99.6056
9 | CN(C)c1nc(N(C)CC2(CO)CCOCC2)ncc1F [CBK307091] | 102.664
10 | c1ccc2c(c1)OCC(COc1cncc(OC3CCN(CC4CCCCC4)C3)n1)O2 (centres unmarked) [CBK084387] | 69.7919
11 | Cc1cc(Cc2cccc(Cl)c2)cc(C2CCCN(C(=O)CN3CCCC3=O)C2)n1 (centres unmarked) [CBK286103] | 106.571
12 | CC(=O)Nc1ccc(S(=O)(=O)N2CCN(C(=O)COc3ccc4ccccc4c3)CC2)cc1 [CBK264164] | 105.744
13 | Clc1ccc(Nc2nc(-c3ccoc3)cn3ccnc23)cc1 [CBK066497] | 82.3755
14 | COc1ccc(/N=C2\NC(=O)/C(=C\C=C\c3ccccc3)S2)cc1 [CBK263417] | 104.24
15 | CC1CCN(CC(CS(=O)(=O)c2ccc([N+](=O)[O-])cc2)N2CCC(C)CC2)CC1 (centres unmarked) [CBK267506] | 99.9835
16 | CCc1ccc(CNC2CCN(Cc3cscn3)CC2)o1 [CBK305104] | 74.499
17 | Cc1c(C(C)NCC2CCN(C)CC2)cnn1-c1ccc(C#N)cc1 (centres unmarked) [CBK304058] | 43.6861
18 | Cc1ccccc1C(=O)NC1(C(F)(F)F)C(=O)Nc2c1c(=O)[nH]c(=O)n2CCc1ccccc1 (centres unmarked) [CBK267483] | 106.563
19 | CCOC(=O)CC1C(=O)NCCN1C/C=C\c1ccccc1OC (centres unmarked) [CBK269791] | 100.527
20 | Clc1ccc(-c2ccc(/C=N/c3ccc4oc(-c5ccccc5)nc4c3)o2)cc1 [CBK261969] | 107.422
21 | O=C(O)COc1ccc(Br)cc1/C=C1\N=C(SCc2ccccc2)SC1=O [CBK265725] | 112.552

Row | SMILES | % of control remaining
22 | Cc1ncccc1COC(=O)N1CCSCC1 [CBK200156] | 94.322
23 | CCC1CCCCN1C(=O)c1ccc(C)c(Br)c1 (centres unmarked) [CBK081559] | 85.7145
24 | Cc1nccn1C(C(=O)NCC1(C)COC1)c1ccccc1 (centres unmarked) [CBK281743] | 119.954
25 | C[S+]([O-])c1nc2ccccc2s1 (centres unmarked) [CBK028233] | 64.2092
26 | O=C(CSc1nnc(-c2ccccc2)[nH]1)c1cccc([N+](=O)[O-])c1 [CBK263287] | 73.2228
27 | CC(CNC(=O)C1CCCCC1C(=O)O)c1ccccc1 (centres unmarked) [CBK268028] | 101.027
28 | O=C(NCCn1nc(-c2cccs2)ccc1=O)c1ccccc1F [CBK283835] | 81.3623
29 | O=C(Nc1cccnc1)c1cc(S(=O)(=O)N2CCOCC2)ccc1Cl [CBK262099] | 90.8137
30 | O=C(Oc1n[nH]c2ccccc12)c1ccc(Cl)cc1 [CBK009976] | 77.8473
31 | CCCn1cc(NC(=O)NCc2cc3c(cc2OC)CCC3)nn1 [CBK306614] | 91.6893
32 | Cc1ccccc1Sc1cc(C(F)(F)F)ccn1 [CBK115233] | 93.2665
33 | Cc1cc(NC(=O)c2nn(-c3nc4ccccc4s3)c3ccccc23)no1 [CBK048489] | 93.6776
34 | COc1cccc2c1CCN=C2C[C@H]1CN(C(=O)C2CC2)CC[C@H]1CC(=O)O [CBK289164] | 97.0676
35 | CSc1nc(NC(=O)c2cccs2)cc(N2CCNCC2)n1 [CBK050315T] | 93.1478
36 | Cc1cccc(Nc2nc(C)cc3n[nH]c(=O)n23)c1 [CBK288477] | 22.0347
37 | Cc1nccn1CC1CCCN(Cc2nc3ccccc3n2C)C1 (centres unmarked) [CBK281975] | 96.6402
38 | Cn1c(CN2CCN(S(C)(=O)=O)CC2)nc2cc([N+](=O)[O-])ccc21 [CBK268362] | 98.7976
39 | O=S(=O)(c1cccc(S(=O)(=O)N2CCOCC2)c1)c1ccc(Cl)c(S(=O)(=O)N2CCOCC2)c1 [CBK261260] | 98.6018
40 | CC1CCC(C(=O)Nc2ccc(C(=O)O)cc2)CC1 (centres unmarked) [CBK287234] | 93.5434
41 | COc1ccc([C@@]2(O)CC[C@@H]3CN(C(=O)C4CCCC4)C[C@@H]32)cc1 [CBK285260] | 90.7741
